# Source: article PMC4336329 (PLoS ONE, 2015)
# In all, about 310,000 compounds went through this assay and about 14,000 (4.5%) showed an effect of 50% or more. Effects have a minus sign here. The list shows a part of the results.
# Molecular target: human ether-à-go-go-related gene (hERG) potassium channel (human, UniProt Q12809)
# Assay: primary screen, population patch clamp on CHO cells stably expressing hERG
# 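Note: peak tail current of the secondary pulse compared with the same well before compound.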
# Sequence of human ether-à-go-go-related gene (hERG) potassium channel (Q12809 whole entry, looked up): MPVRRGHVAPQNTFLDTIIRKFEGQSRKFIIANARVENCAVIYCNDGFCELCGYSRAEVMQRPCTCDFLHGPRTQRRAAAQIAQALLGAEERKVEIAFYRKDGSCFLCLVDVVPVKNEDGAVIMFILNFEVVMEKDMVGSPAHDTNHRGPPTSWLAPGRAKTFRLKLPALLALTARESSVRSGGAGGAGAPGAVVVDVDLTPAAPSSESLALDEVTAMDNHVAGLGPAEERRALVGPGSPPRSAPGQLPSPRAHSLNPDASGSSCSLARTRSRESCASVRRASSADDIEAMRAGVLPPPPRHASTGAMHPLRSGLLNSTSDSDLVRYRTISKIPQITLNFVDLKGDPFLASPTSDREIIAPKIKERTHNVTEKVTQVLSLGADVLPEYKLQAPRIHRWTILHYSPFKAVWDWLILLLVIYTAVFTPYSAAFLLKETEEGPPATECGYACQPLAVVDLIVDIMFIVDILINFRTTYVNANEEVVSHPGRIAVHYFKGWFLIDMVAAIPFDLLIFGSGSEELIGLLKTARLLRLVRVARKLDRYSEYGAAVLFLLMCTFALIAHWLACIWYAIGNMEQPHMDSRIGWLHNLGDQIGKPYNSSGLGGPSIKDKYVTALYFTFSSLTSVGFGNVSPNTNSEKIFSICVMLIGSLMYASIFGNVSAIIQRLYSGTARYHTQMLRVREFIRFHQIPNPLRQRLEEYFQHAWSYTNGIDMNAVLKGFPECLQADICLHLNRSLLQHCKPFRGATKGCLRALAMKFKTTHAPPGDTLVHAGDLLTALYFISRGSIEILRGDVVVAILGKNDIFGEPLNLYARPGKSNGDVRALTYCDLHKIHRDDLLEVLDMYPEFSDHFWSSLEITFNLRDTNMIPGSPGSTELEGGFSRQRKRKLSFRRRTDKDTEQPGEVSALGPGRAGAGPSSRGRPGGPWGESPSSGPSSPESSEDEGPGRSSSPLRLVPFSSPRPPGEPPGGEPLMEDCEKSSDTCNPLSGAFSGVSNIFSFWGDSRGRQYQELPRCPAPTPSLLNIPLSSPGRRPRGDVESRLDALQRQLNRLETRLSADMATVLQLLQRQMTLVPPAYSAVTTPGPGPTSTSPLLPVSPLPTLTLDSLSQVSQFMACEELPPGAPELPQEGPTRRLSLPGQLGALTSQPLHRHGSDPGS
row,Structure (SMILES),"hERG current change (%, negative = inhibition) at 10uM [%]"
1,CCCCCN(C(=O)CCC(=O)OC(C)C(=O)NCc1ccccc1)c1c(N)n(CCCC)c(=O)[nH]c1=O (stereo not shown),-14.5
2,CCOC(CNC(=O)c1ccc2c(c1)ncn2-c1ccccc1OC)OCC,2.14
3,COc1cccc(C(=O)Nc2nc3c(c(=O)[nH]2)CCCC3)c1,1.79
4,CCN1C[C@]2(COC)CC[C@H](O)[C@@]34C5C[C@H]6[C@H](O)C5[C@](O)(C[C@H]6OC)[C@@H]([C@H](OC)C23)[C@@H]14 (stereo partly shown),2.57
5,Cc1c(S(=O)(=O)N2CCN(C(=O)c3ccco3)CC2)c(=O)n(C)c(=O)n1C,0.0708
6,COC(=O)CCC(=O)NNC(=O)CCC(=O)Nc1cccc(Cl)c1C,6.61
7,CCOC(=O)c1c(-c2ccc(C)o2)csc1NC(=O)CN(C)CC(=O)Nc1ccc(C)cc1,8.55
8,Cc1ccc(N(C(=O)c2ccco2)C(C(=O)NC2CCCC2)c2ccco2)c(C)c1 (stereo not shown),10.7
9,O=C(COc1ccc2ccccc2c1)Nc1cccnc1Cl,6.3
10,FC(F)(F)c1cnc(COc2ccc(Cl)cc2Cl)c(Cl)c1,18.8
11,Cc1cc(C)c(NC(=O)c2ccc[n+](Cc3ccc([N+](=O)[O-])cc3)c2)c(C)c1.[Br-],-1.16
12,COc1nc(Nc2ccc3c(c2)OCO3)nc(OC)n1,-0.366
13,CCOC(=O)N1CCN(C(=O)CSc2nnc(CNC(=O)c3ccccc3F)o2)CC1,6.37
14,COC(=O)CCC(=O)OC1(C)C(=O)C=C2C=C3CCCN3C=C2C1=O (stereo not shown),-21.5
15,Cc1cccc(C(=O)NCCNC(=O)c2cccnc2)c1,18.6
16,Cn1c(NC(=O)c2ccco2)c(-c2ccccc2)c(=O)c2ccccc21,13.6
17,Cc1ccc(F)c(NC(=S)Nc2cccc3ccccc23)c1,19.6
18,C/C(=N/NC(=O)CNc1ccc(C)cc1)c1ccc(Br)s1,-4.34
19,COc1ccccc1N1CCN(C2CCCN(C(=O)c3ccccn3)C2)CC1 (stereo not shown),-0.115
20,CCOC(=O)C1(Cc2ccccc2)CCCN(C2CCN(C(C)=O)CC2)C1 (stereo not shown),3.82
21,COc1ccc(NC(=O)C(CC(=O)O)C(C)c2ccccc2)cc1 (stereo not shown),11.2
22,Cc1cccc(N(C)c2ccc3cc(S(=O)(=O)N4CCCC4)ccc3n2)c1,17.3

row,Structure (SMILES),"hERG current change (%, negative = inhibition) at 10uM [%]"
1,O=C(O)CNS(=O)(=O)c1ccc2c3c(cccc13)C(=O)N2,15.6
2,C/C(=N\NC(=O)Cn1c(-c2ccccn2)nc2ccccc21)c1ccccc1,-1.69
3,N/C(=N\OC(=O)c1ccccc1[N+](=O)[O-])c1cccnc1,-2.9
4,Cc1ccccc1CN1C[C@@H]2C[C@@H](c3ccc4nsnc4c3)N3CCC[C@@]23C1=O,-18.1
5,CN(C)Cc1nnnn1-c1cccc(-n2nnnc2CN(C)C)c1,12.3
6,C=C(C)COc1ccc(-c2ncncc2Oc2ccc(OC)cc2)c(O)c1,-17.3
7,O=C(Nc1ccc(F)c(Cl)c1)c1nsc(Cl)c1Cl,10.7
8,COc1ccc(CNS(=O)(=O)c2ccc(F)c(C(=O)Nc3ccccc3OC)c2)cc1,13.9
9,CNc1c([N+](=O)[O-])ncn1C,4.95
10,CC(=O)N1C(C)c2ccccc2C(C)(C)CC12CCCCC2 (stereo not shown),-16.2
11,COc1ccc(S(=O)(=O)N2CCN(CC(=O)NC3CCCC3)CC2)cc1,0.823
12,CCCCOc1ccc(C(=O)Nc2ccc3c(c2)OCO3)cc1,11.9
13,CN(C)CCCNc1ncnc2c1cnn2-c1ccccc1,-22.8
14,Cc1nc(-c2ccc(F)cc2)c(CC(=O)N2CCN(S(=O)(=O)c3cccc(F)c3)CC2)s1,6.48
15,Cc1ccc(NC(=O)c2cc(NC(=O)c3ccco3)ccc2N2CCOCC2)cc1Cl,-10.3
16,Cc1cc(C(=O)OCC(=O)c2ccccc2)c2ccccc2n1,23.1
17,C=CCNc1ncnc2c1[nH]c1ccccc12,9.69
18,CCOC(=O)c1[nH]cnc1C(=O)O,-2.12
19,COC(=O)c1ccc(N=NNc2cccc(Br)c2)cc1,-2.25
20,CC(C)COC(=O)C1C2C=CC3(CN(C4CCCC4)C(=O)C13)O2 (stereo not shown),-15.4
21,COC(=O)c1cc(S(=O)(=O)N(C)C2CCCCC2)c[nH]1,4
22,O=C(NC(=S)Nc1nc(-c2ccc([N+](=O)[O-])cc2)cs1)c1ccco1,16.5

row,Structure (SMILES),"hERG current change (%, negative = inhibition) at 10uM [%]"
1,CC(=O)c1ccc(NC(=O)CN2C(=O)COc3ccc(S(=O)(=O)N4CCCC4)cc32)cc1,-27.9
2,COc1ccc(NC(=O)COc2ccc(C)nc2[N+](=O)[O-])cc1S(N)(=O)=O,-3.79
3,CCOc1ccccc1NC(=O)c1ccc(OCC)c([N+](=O)[O-])c1,-10.3
4,CNC(=O)Oc1cccc(-c2cn3cc(OC(=O)NC)ccc3n2)c1,-7.38
5,O=C1CCN(C(=O)Cc2ccccc2[N+](=O)[O-])CC1,18.9
6,CN(C)CCCC1Sc2ccccc2Sc2ccccc21.O=C(O)C(=O)O (stereo not shown),-56.1
7,Cc1ccc(-n2cccc2/C=C2/NC(=O)N(CC(=O)Nc3cccc(C)c3)C2=O)cc1,8.68
8,Cc1c(Cl)cccc1NC(=O)c1ccccc1-c1ccccc1C(=O)O,17.3
9,CCN(CC(=O)Nc1c(F)cccc1F)C(=O)c1cc2ccccc2oc1=O,3.1
10,C=CCN1CN(S(=O)(=O)c2ccc(OC)cc2)c2nc3ccccc3nc21,-2.92
11,CN(C)S(=O)(=O)c1ccc(Cl)c(C(=O)Nc2ccc(S(=O)(=O)N3CCOCC3)cc2)c1,0.475
12,O=C(CCl)NC1CCCc2ccccc21 (stereo not shown),5.6
13,O=C(O)C(=O)O.c1ccc(-c2ccccc2OCCCN2CCCCC2)cc1,-74.6
14,O=C(N/N=C/c1cn(-c2ccccc2)nc1-c1cccs1)c1ccccc1F,18.9
15,CCCNC(=O)c1ccc(CN2CCOCC2)cc1,8.4
16,CC1CCCCC12NC(=O)N(CC(=O)NCc1ccco1)C2=O (stereo not shown),-3.53
17,Cc1onc(-c2c(Cl)cccc2Cl)c1C(=O)ONC(=O)c1ccccc1,9.59
18,CSc1n[nH]c(NC(C)=O)n1,10.6
19,S=C(Nc1ccc(Cl)cc1Cl)N1CCOCC1,11.1
20,O=C(c1ccc(F)cc1)C1CCN(C(=O)Nc2ccc(F)cc2F)CC1,-11
21,O=S(=O)(Nc1ccon1)c1ccc(F)c(F)c1,9.95
22,CCN(CC(=O)NC(C)(C)C)Cc1cc(=O)n2c(-c3ccccc3)csc2n1,7.25

row,Structure (SMILES),"hERG current change (%, negative = inhibition) at 10uM [%]"
1,NC1=NS(=O)(=O)NC1c1cccc(Cl)c1 (stereo not shown),16.1
2,COc1ccc(CCNC(=O)CCC(=O)Nc2ccccc2[N+](=O)[O-])cc1OC,7.49
3,CCCCNC(=O)O[C@H]1C[C@@H]2CCN3C(=O)CCC[C@H]([C@H]1Cc1ccccc1)[C@H]23,-11.8
4,COc1cc(-c2nnc(COC(=O)c3nn(CC(C)C)c(=O)c4ccccc34)o2)cc(OC)c1OC,-24.3
5,CCN(CC)C(=S)Nc1c(C)n(C)n(-c2ccccc2)c1=O,13
6,COc1ccc(NC(=S)N/N=C2\CC(C)(C)Oc3ccc(OC)cc32)cc1,5.27
7,Cc1sc(NC(=O)Cn2cnnn2)nc1-c1ccc(Cl)cc1,1.56
8,CCCOC(=O)c1ccc(OC(=O)c2ccco2)cc1,9.34
9,Cc1ccc(NC(=O)C2C3CCC(O3)C2C(=O)O)c(Br)c1 (stereo not shown),24.4
10,CC1CCCC(NC(=O)CN2CCN(S(=O)(=O)c3cccs3)CC2)C1C (stereo not shown),-0.883
11,COCCn1nnnc1C(c1ccccc1)N1CCN(c2ccccc2)CC1.Cl (stereo not shown),-29.3
12,CCCCn1[nH]c(-c2ccccc2)cc1=O,2.97
13,CC(C)Oc1ccc(S(=O)(=O)N2CCOCC2)cc1NC(=O)Cc1cccs1,-33.4
14,CC1CCCN(C(=O)C2CCN(CCCc3ccccc3)CC2)C1.O=C(O)C(=O)O (stereo not shown),-47.5
15,CC(=O)c1sc(N/N=C\c2ccc(N(C)C)cc2)nc1C,12.9
16,Cc1nc2ccccc2c(=O)n1NC(=O)/C=C/c1ccccc1,-16.6
17,O=C(N/N=C/c1cccnc1)c1ccc(Cl)c(Cl)c1,-1.48
18,CC1(C)Cc2c(cnn2-c2cccc(F)c2)C(NC(=O)C2CCOCC2)C1 (stereo not shown),-43.4
19,CN1CCN(C(=O)c2ccc3c(=O)n(Cc4ccco4)c(=S)[nH]c3c2)CC1,-4.06
20,O=C1c2cccnc2C(Nc2ccc(Cl)cc2)N1Cc1cccs1 (stereo not shown),9.6
21,CCO[C@H]1OC(C(=O)N2CCOCC2)=C[C@@H](c2ccccc2)[C@@H]1CCCO,-4.87
22,COc1ccc(-c2cnc(N)n2CC2CCCO2)cc1 (stereo not shown),-5.53
